The source of these data is publication PMC4117426.

The chains behind the UniProt entries cited, without tags or fusion partners. Where a name states a change or a piece, a line headed by the entry shows the natural chain unless it says otherwise.
UniProt P0A9A6: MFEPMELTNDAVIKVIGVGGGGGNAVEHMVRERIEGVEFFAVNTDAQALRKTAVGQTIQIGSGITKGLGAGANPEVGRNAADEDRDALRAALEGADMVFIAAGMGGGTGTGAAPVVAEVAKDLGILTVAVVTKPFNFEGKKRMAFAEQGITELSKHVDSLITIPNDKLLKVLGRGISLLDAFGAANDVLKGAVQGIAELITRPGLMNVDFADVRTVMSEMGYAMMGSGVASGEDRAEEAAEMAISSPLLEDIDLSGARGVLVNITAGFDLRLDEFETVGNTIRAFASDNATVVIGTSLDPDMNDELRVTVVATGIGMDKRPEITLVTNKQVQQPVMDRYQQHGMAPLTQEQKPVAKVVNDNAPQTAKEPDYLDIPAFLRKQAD

Numbering of substitutions follows the chain as printed. No constants are given. Whether binding was seen depends on the method and setting. Some results given as binding are weak or reduced against the parent protein; the word gives no strength. For some assays here: Sequences can lack the tags named with a protein.

The target in one experiment is T1, SlmA-T25 (E. coli) (UniProt P0C093).
T1 sequence: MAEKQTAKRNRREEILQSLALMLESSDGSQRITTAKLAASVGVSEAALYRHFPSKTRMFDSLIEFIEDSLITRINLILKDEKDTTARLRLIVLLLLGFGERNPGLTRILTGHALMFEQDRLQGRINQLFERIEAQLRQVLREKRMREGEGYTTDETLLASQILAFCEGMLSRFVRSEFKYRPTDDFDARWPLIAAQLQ
Kind of experiment: two-hybrid; bacterial two-hybrid (T18/T25) in BTH101; spots on LB plates with X-gal and 250 µM IPTG, 30°C, 36 hours.

The target of experiment [1] is T2, 6×His-SlmA (E. coli) (UniProt P0C093).
T2 sequence: T1 sequence
Kind of experiment: BLI; biotinylated SBS17-30mer (50 nM) on streptavidin tips, loaded with 4 µM SlmA or SlmA mutant; FtsZ or variants (4 µM, preincubated with 1 mM GDP) or peptides (up to 320 µM) in solution; 1× Pol buffer, room temperature; both purified. In general terms: In BLI a coated tip is dipped into the sample, and binding shifts an interference pattern.

Experiment [2] has as its target T2, 6×His-SlmA (E. coli). Nature of the experiment: BLI; data not shown: 6×-His-SlmA preincubated with SBS17-30mer attached to a Ni-NTA biosensor, FtsZ in solution; both purified.
For experiment [3], the target named is T2, 6×His-SlmA (E. coli). Nature of the experiment: BLI; competition: SlmA/SBS17-30mer on streptavidin tips; 4 µM FtsZ preincubated with various concentrations of ZipA185-328 (with GDP); both purified.
In experiment [4] the target is T2, 6×His-SlmA (E. coli). Kind of experiment: BLI; competition: SlmA/SBS17-30mer on streptavidin tips; 4 µM FtsZ preincubated with various concentrations of the FtsZ C-terminal peptide; both purified.
The target in experiment [5] is T3, 6×His-SlmA-F65A (E. coli) (UniProt P0C093).
T3 sequence: T1 sequence with F65A
Kind of experiment: BLI; biotinylated SBS17-30mer (50 nM) on streptavidin tips, loaded with 4 µM SlmA or SlmA mutant; FtsZ or variants (4 µM, preincubated with 1 mM GDP) or peptides (up to 320 µM) in solution; 1× Pol buffer, room temperature; both purified.

Experiment [6] deals with T4, 6×His-SlmA-R73D (E. coli) (UniProt P0C093).
T4 sequence: T1 sequence with R73D
The experiment is described as above.

Take “FtsZ-K190V-T18 (from UniProt P0A9A6 1-383)”: the binding result in the experiment with SlmA-T25 (E. coli) is listed as “binds weakly”.

In the case of FtsZ-T18 (from UniProt P0A9A6 1-383), in the experiment with SlmA-T25 (E. coli), the binding result is reported as “binds weakly”.

As for FtsZ-L378E (from UniProt P0A9A6 1-383), the binding entry in the experiment with 6×His-SlmA (E. coli) [1] was “no binding (tested: 4 µM)”.

Regarding “Ztail-I374K (from UniProt P0A9A6 370-383) (peptide)”, the binding result with 6×His-SlmA (E. coli) [1] was “no binding (tested: 320 µM)”.

For “6×His-FtsZ320 (from UniProt P0A9A6 1-320) (domain or fragment)”, in the experiment with 6×His-SlmA (E. coli) [1], the binding result is on record as “no binding (tested: 4 µM)”.

With FtsZ (from UniProt P0A9A6 1-383), the binding entry is “binds” with 6×His-SlmA (E. coli) [2]; “binds” with 6×His-SlmA (E. coli) [3]; “binds” with 6×His-SlmA (E. coli) [4]; “binds” in the experiment with 6×His-SlmA (E. coli) [1]; “no binding (tested: 4 µM)” in experiment [5]; “no binding (tested: 4 µM)” in experiment [6].

Regarding “Ztail-L378E (from UniProt P0A9A6 370-383) (peptide)”, the binding entry with 6×His-SlmA (E. coli) [1] is on record as “no binding (tested: 320 µM)”.

FtsZ-I374K (from UniProt P0A9A6 1-383): the binding result with 6×His-SlmA (E. coli) [1] is recorded as “no binding (tested: 4 µM)”.

As for “FtsZ-D86N-T18 (from UniProt P0A9A6 1-383)”, the binding entry with SlmA-T25 (E. coli) was “binds weakly”.
